From publication PMC13083723 (Patterns, 2026)
In all, about 5,400 compounds went through this assay and about 190 (3.5%) showed an effect of 50% or more. Some of the results follow. Residues, ends and D or L forms follow the SMILES beside them. *: point of attachment. NHCH2CH2OH = OCCN*; For = O=C*

What follows are compounds tested on Vero-E6 (assay: primary screen, phospholipidosis by LipidTOX staining; higher = more effect of the substance). Conditions: 10 µM.
In short: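 Drug-induced phospholipidosis detected with HCS LipidTOX Red reagent in Vero-E6 cells. Compounds tested at 10 μM, with amiodarone (10 μM) as positive control and DMSO (0.1 v/v %) as vehicle.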

Row | SMILES | result_ITMP
1 | O=C(Nc1cc2cc[nH]c2cn1)c1ccccc1 | 4.15%
2 | CNc1nc(C)nc(N[C@H]2CCC[C@@H](C(=O)NCc3ccc(C#N)cc3C(F)(F)F)C2)n1 | -2.22%
3 | C#C[C@]1(O)CC[C@H]2[C@@H]3CCC4=CC(=O)CC[C@@H]4C3CC[C@@]21CC (some centres unmarked) | -2.07%
4 | CN1Cc2ccccc2[C@@H]2c3cccc4[nH]cc(c34)C[C@H]21 | 2.12%
5 | CC(C)CC(NC(=O)C(C)NC(=O)CNC(=O)C(NC=O)C(C)C)C(=O)NC(C)C(=O)NC(C(=O)NC(C(=O)NC(C(=O)NC(Cc1c[nH]c2ccccc12)C(=O)NC(CC(C)C)C(=O)NC(Cc1c[nH]c2ccccc12)C(=O)NC(CC(C)C)C(=O)NC(Cc1c[nH]c2ccccc12)C(=O)NC(CC(C)C)C(=O)NC(Cc1c[nH]c2ccccc12)C(=O)NCCO)C(C)C)C(C)C)C(C)C (centres unmarked) (For-VGALAVVVWLWLWLW-NHCH2CH2OH; configuration not given here) | -8.15%
6 | N#Cc1c(N)nc(SCc2ncc[nH]2)c(C#N)c1-c1ccc(O)cc1 | 1.67%
7 | CN[C@H]1C(=O)N[C@@H]2Cc3ccc(cc3)Oc3cc4cc(c3O[C@@H]3O[C@H](C(=O)O)[C@@H](O)[C@H](O)[C@H]3NC(=O)CCCCCCCCC(C)C)Oc3ccc(cc3Cl)[C@@H](O)[C@@H]3NC(=O)[C@H](NC(=O)[C@@H]4NC(=O)[C@@H](NC2=O)c2cc(cc(O)c2Cl)Oc2cc1ccc2O)c1ccc(O)c(c1)-c1c(O[C@H]2O[C@H](CO)[C@@H](O)[C@H](O)[C@@H]2O)cc(O)cc1[C@@H](C(=O)NCCCN(C)C)NC3=O | 0.77%
8 | COc1cc(OC)cc(C(=O)NNC(=O)Nc2cccc3ccccc23)c1 | -1.62%
9 | CN[C@@H]1[C@@H](O)[C@@H](O[C@@H]2[C@@H](O)[C@H](O[C@H]3OC(CN)=CC[C@H]3N)[C@@H](N)C[C@H]2N)OC[C@]1(C)O | -1.73%
10 | O=C(N[C@H]1CN2CCC1CC2)c1ccc(Cl)cc1 | -0.98%
11 | Cc1oc2ccccc2c1CNC(=O)NCc1cccs1 | -6.74%
12 | COc1cc(O)c2c(c1)C(=O)c1cc(C)cc(O)c1C2=O | -10.6%
13 | CC(C)[C@H]1c2ccc(F)cc2CC[C@@]1(CCN(C)CCCc1nc2ccccc2[nH]1)OC(=O)C1CC1 | 68.1%
14 | CCOC(=O)n1ccn(C)c1=S | -1.98%
15 | COc1cc(N2CCC(N)CC2)ccc1Nc1ncc(Cl)c(-c2c[nH]c3ccccc23)n1 | 15.8%
16 | CC1(O)CCC(C(C)(C)O)CC1 (centres unmarked) | -1.81%
17 | N#Cc1ccc(N2CCN(C(=O)COc3ccc4[nH]cc(CCN)c4c3)CC2)cc1 | 1.4%
18 | C[C@H](N)[C@H](O)c1cccc(O)c1 | -8.67%
19 | CC(=O)OCC(=O)[C@@]1(O)CCC2C3CCC4=CC(=O)CC[C@]4(C)C3C(=O)C[C@@]21C (some centres unmarked) | 2.13%
20 | COC(=O)c1ccccc1NC(=O)c1ccc(F)cc1 | 0.11%
21 | CC(=O)[C@@]1(O)CC[C@H]2[C@@H]3C[C@H](C)C4=CC(=O)CC[C@]4(C)[C@H]3CC[C@@]21C | -2.43%

Row | SMILES | result_ITMP
22 | CCN(CC)CCOC(=O)C(Cc1cccc2ccccc12)CC1CCCO1 (centres unmarked) | 30.3%
23 | CC1=C(/C=C/C(C)=C/C=C/C(C)=C/C(=O)O)C(C)(C)CCC1 [R4A_0003961_001 / SPE_K71879491] | 4.7%
24 | CCC(=N\O)/C(C)=C/c1ccc(F)cc1 | 7.9%
25 | COc1ccc(-c2nc(-c3ccc(-c4cccc(Cl)c4)o3)[nH]c2-c2ccc(OC)cc2)cc1 | -2.28%
26 | Cc1nc2sccn2c(=O)c1CCN1CCC(=C(c2ccccc2)c2ccc(F)cc2)CC1 | 20.4%
27 | CC(C)(C)C(=O)C(Oc1ccc(Cl)cc1)n1ccnc1 (centres unmarked) | -4.32%
28 | Cc1ccccc1OCC(O)CO (centres unmarked) | -0.54%
29 | CC1=C(CC(=O)O)c2cc(F)ccc2/C1=C\c1ccc(S(C)(=O)=O)cc1 | -2.65%
30 | CC(C)N(CCCNC(=O)Nc1ccc(C(C)(C)C)cc1)C[C@H]1O[C@@H](n2cc(Br)c3c(N)ncnc32)[C@H](O)[C@@H]1O | -0.74%
31 | COc1ccc(-c2csc(NC(=O)[C@H]3CCCCN3S(=O)(=O)c3ccc(C)cc3)n2)cc1 | 2.21%
32 | CS(=O)(=O)c1ccc(-c2cc(Br)sc2-c2ccc(F)cc2)cc1 | -2.33%
33 | O=C1CN(/N=C/c2ccc([N+](=O)[O-])o2)C(=O)N1 | -2.22%
34 | c1ccc2c(c1)CN1CCCC1=N2 | -2.97%
35 | CCCCNc1cc(C(=O)O)cc(S(N)(=O)=O)c1Oc1ccccc1 | 0.48%
36 | C[C@H](Cn1cnc2c(N)ncnc21)OCP(=O)(O)O | -4.42%
37 | CNC(=O)c1c(I)c(C(=O)NCC(=O)Nc2c(I)c(C(=O)O)c(I)c(C(=O)NCCO)c2I)c(I)c(N(C)C(C)=O)c1I | -8.75%
38 | C=CCN1C[C@H](C)N([C@H](c2ccc(C(=O)N(CC)CC)cc2)c2cccc(OC)c2)C[C@H]1C | -0.44%
39 | CCO[C@@H](Cc1ccc(OCCc2ccc(OS(C)(=O)=O)cc2)cc1)C(=O)O | -5.22%
40 | CCc1cc(O)c(Oc2ccc(C(N)=O)cc2F)cc1F | -1.4%
41 | C=CCN1C[C@H](C)N([C@H](c2ccc(C(=O)N(CC)CC)cc2)c2cccc(O)c2)C[C@H]1C | -2.02%
42 | CCOC(=O)[C@H](CCc1ccccc1)N[C@@H](C)C(=O)N(CC(=O)O)C1Cc2ccccc2C1 | -3.52%

Row | SMILES | result_ITMP
43 | O=C(NC1CCC1)c1ccc(C#Cc2cccc(F)c2)nc1 | 1.13%
44 | Cc1cc(O)c(C(C)C)cc1Cl | -3.91%
45 | CC(=O)Oc1ccccc1C(=O)Oc1ccccc1C(=O)O | -8.73%
46 | CN[C@@H]1[C@@H](O[C@H]2O[C@H](CO)[C@@H](N)[C@H](O)[C@H]2O)O[C@H]2C[C@@H](N)[C@H](O[C@H]3[C@H](O)[C@@H](O)[C@H](N)C[C@@H]3N)O[C@@H]2[C@@H]1O | 5.54%
47 | N[C@H](C(=O)O)[C@@H]1CC(Cl)=NO1 | -7.23%
48 | N#CC(c1ccnc(OCc2ccc(CN3CCOCC3)cc2)n1)c1nc2ccccc2s1 (centres unmarked) | 1.37%
49 | O=C(NO)c1cnc(N2CCN(S(=O)(=O)c3ccc4ccccc4c3)CC2)nc1 | -0.4%
50 | COc1ccc2c(c1)-c1nn(CCCN(C)C)c3ccc([N+](=O)[O-])c(c13)N2 | 25.8%
51 | O=C(NCCCN1CCCCCC1)C(c1ccccc1)C1CCCCC1 (centres unmarked) | 36.5%
52 | O=c1ccn([C@@H]2O[C@H](CO)[C@@H](O)[C@H]2O)c(=O)[nH]1 | -9.17%
53 | COc1ccc2[nH]c(-c3ccccc3)c(CCNC(C)=O)c2c1 | -1.61%
54 | CC(C)(C)c1ccc(C(=O)CCCN2CCC(OC(c3ccccc3)c3ccccc3)CC2)cc1 | -10.4%
55 | CC[C@H](NC(=O)c1c(O)c(-c2ccccc2)nc2ccccc12)c1ccccc1 | 0.11%
56 | CCCCCC(O)c1cccc(OCc2ccc3ccccc3n2)c1 (centres unmarked) | -1.34%
57 | [O-][n+]1cccc(CO)c1 | -1.46%
58 | OC(CC1c2ccccc2-c2cncn21)C1CCCCC1 (centres unmarked) | -1.09%
59 | COC(=O)Nc1nc2cc(SC(C)C)ccc2[nH]1 | -7.27%
60 | C[C@H]1NC(=O)NC1=O | -2.09%
61 | O=C(CC12CC3CC(CC(C3)C1)C2)Nc1cccc2nc(NCCNCCO)ccc12 | -0.03%
62 | Cc1ccnc(NS(=O)(=O)c2ccc(N)cc2)n1 | -3.55%
63 | NC(=O)OCC(COC(N)=O)c1ccccc1 | -2.04%

Row | SMILES | result_ITMP
64 | N=C(N)NCc1cccc(I)c1 | -3.59%
65 | CNC[C@H](O)[C@@H](O)[C@H](O)[C@H](O)CO | -1.34%
66 | COC(=O)N[C@H](C(=O)N[C@@H](Cc1ccccc1)[C@@H](O)CN(Cc1ccc(-c2ccccn2)cc1)NC(=O)[C@@H](NC(=O)OC)C(C)(C)C)C(C)(C)C | 0.11%
67 | O=C1C(CCS(=O)c2ccccc2)C(=O)N(c2ccccc2)N1c1ccccc1 (centres unmarked) | -2.27%
68 | N.N.O=C([O-])C[O-].[Pt+2] | -1.46%
69 | CN(C)/C=N/c1c(I)cc(I)c(CCC(=O)[O-])c1I | -3.15%
70 | COC(=O)Nc1ccc(-c2nc(N3CCOCC3)c3cnn(C4CCN(C(=O)OC)CC4)c3n2)cc1 | -3.74%
71 | Clc1ccc(C2=CCCC3CCC2N3)cn1 (centres unmarked) | -1.49%
72 | CN1CCC(Nc2ncc3ncnc(Nc4ccc(F)c(Cl)c4)c3n2)CC1 | 76.5%
73 | COc1ccc2c(C)nc(Nc3nc(=O)c(C)c(C)[nH]3)nc2c1 | 0.3%
74 | CC1=CC(=C(c2ccc(N)cc2)c2ccc(N)cc2)C=CC1=N | -10.8%
75 | Cc1ccc(-c2ncccn2)c(C(=O)N2C[C@H](COc3ccc(F)cn3)CC[C@H]2C)c1 | 3.94%
76 | CC(C)n1c(/C=C/[C@@H](O)C[C@@H](O)CC(=O)[O-])c(-c2ccc(F)cc2)c2ccccc21 | 0.97%
77 | O=c1cc(-c2ccccc2)oc2cc(O)c(O)c(O)c12 | -2.06%
78 | CC(C)(Oc1ccc(Cl)cc1)C(=O)N1CSCC1C(=O)O (centres unmarked) | -4.08%
79 | CN(C)CCn1nnnc1SCC1=C(C(=O)O)N2C(=O)[C@@H](NC(=O)Cc3csc(N)n3)[C@H]2SC1 | 0.61%
80 | CN1CCN(c2ccc(Nc3ncc4cc(C#N)c(=O)n(C5CCCC5)c4n3)cc2)CC1 | -0.88%
81 | NCc1ccccc1Sc1ccccc1CO | 8.83%
82 | CC(C)N(CCC(C(N)=O)(c1ccccc1)c1ccccn1)C(C)C (centres unmarked) | -1.61%
83 | CC(=O)[O][Hg][c]1ccccc1 | 2.59%
